In article PMC6919601, “Identification of Plasmodium dipeptidyl aminopeptidase allosteric inhibitors by high throughput screening” (PLoS ONE, 2019):
Among all 110,000 compounds or so, about 230 (0.21%) showed an effect of 50% or more. This is one part of the list.

molecular target: DPAP1 (Plasmodium falciparum, UniProt Q8IIJ9); experiment: primary screen, percent inhibition; read by cleavage of a fluorogenic dipeptide substrate; higher = more effect of the substance; set-up: species or system P. falciparum D10 trophozoite lysates; single well
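Note: 30 min substrate incubation versus DMSO and 10 µM JCP410 controls.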

Chain of DPAP1 (Q8IIJ9 whole entry, looked up): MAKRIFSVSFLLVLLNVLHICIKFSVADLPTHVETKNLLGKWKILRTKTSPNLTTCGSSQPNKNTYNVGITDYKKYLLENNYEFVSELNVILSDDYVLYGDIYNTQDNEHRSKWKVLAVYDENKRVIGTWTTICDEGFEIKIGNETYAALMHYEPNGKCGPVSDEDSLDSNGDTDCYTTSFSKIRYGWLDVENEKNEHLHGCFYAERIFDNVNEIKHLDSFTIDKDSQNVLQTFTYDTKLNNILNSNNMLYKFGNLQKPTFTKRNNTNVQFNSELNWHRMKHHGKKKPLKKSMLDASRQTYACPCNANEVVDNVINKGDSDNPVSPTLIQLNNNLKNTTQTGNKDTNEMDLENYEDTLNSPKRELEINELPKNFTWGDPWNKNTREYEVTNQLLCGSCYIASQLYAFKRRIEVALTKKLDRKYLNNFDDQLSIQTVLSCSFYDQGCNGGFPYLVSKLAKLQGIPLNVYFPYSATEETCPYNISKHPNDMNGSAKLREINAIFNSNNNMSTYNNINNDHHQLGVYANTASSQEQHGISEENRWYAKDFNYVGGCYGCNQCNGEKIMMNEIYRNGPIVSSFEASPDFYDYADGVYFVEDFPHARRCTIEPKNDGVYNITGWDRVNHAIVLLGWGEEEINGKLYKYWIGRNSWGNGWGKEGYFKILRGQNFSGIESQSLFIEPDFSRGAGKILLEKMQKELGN

Row | SMILES | % Inhibition @ 10 uM [%]
1 | Cc1ccc(S(=O)(=O)Cc2ccc(C(=O)N3CCc4ccccc4C3)o2)cc1 | -3.32
2 | Cc1sc(NC(=O)C2CCCCC2)c(C(N)=O)c1C | -0.582
3 | O=C(O)C1Cc2c([nH]c3ccccc23)C(c2cccc(O)c2)N1 (stereo not drawn) | -3.62
4 | O=C(O)c1ccc(-c2nc3c4ccccc4c4ccccc4c3[nH]2)cc1 | 14.8
5 | O=C1OC(c2ccccc2Br)=N/C1=C\N1CCOCC1 | -8.05
6 | Cn1c(=O)c2ncn(CC(=O)Nc3ccc(-c4nc5ccccc5o4)cc3)c2n(C)c1=O | 18.2
7 | Cc1ccc(N2C(=O)NC(=O)/C(=C/Nc3cccc(Br)c3)C2=O)cc1 | -2.54
8 | Cc1ccc(CCNC(=O)C(C)n2sc3ccccc3c2=O)cc1 (stereo not drawn) | -3.27
9 | CS(=O)(=O)N(CC(=O)N1CCC(Cc2ccccc2)CC1)c1cccc(F)c1 | 4.22
10 | CC1=C(C(=O)Nc2ccccc2)C(c2ccc(C)o2)n2c(s/c(=C/c3cnn(C)c3C)c2=O)=N1 (stereo not drawn) | 2.42
11 | O=C1NC(=O)c2cccc3cccc1c23 | -4.51
12 | Cc1[nH]nc2c1C(c1cc(CSc3nc4ccccc4s3)cs1)C(C#N)=C(N)O2 (stereo not drawn) | 9.78
13 | CCN(CC)Cc1cc(C(=O)O)c(-c2ccccc2)o1 | 1.03
14 | Cc1c(Cl)c(C(=O)Nc2nc3ccccc3n2CCN2CCCCC2)nn1C | -1.1
15 | O=C(C1c2ccccc2Oc2ccccc21)N1CCCCCC1 | -1.88
16 | C=CCOc1ccc(CNC(C)c2ccccc2)cc1OC (stereo not drawn) | 4.11
17 | CC1CC(=O)C2=C(C1)OC(N)=C(C#N)C2c1ccc(Br)cc1 (stereo not drawn) | -0.197
18 | COCCN1C(=O)/C(=C/c2cccc(C)c2)S/C1=N\c1ccccc1 | 64.4
19 | COC(=O)C1=C(C)N(CCc2ccccc2)C(=O)/C1=C\c1cccc(O)c1 | -5.26
20 | CCN(CC)CC(O)c1cc2cc(Br)ccc2s1 (stereo not drawn) | -9.93
21 | [O-][n+]1onc2c1CCc1c-2nc(-c2ccccc2Cl)n1O | 0.215

Row | SMILES | % Inhibition @ 10 uM [%]
22 | CCCSc1nnc2c(=O)n(C)c(=O)n(C)c2n1 | -1.15
23 | FC(F)(F)c1cccc(/C=C/c2nn3c(-c4ccco4)nnc3s2)c1 | 46.8
24 | FC(F)(c1cc(-c2ccccc2)[nH]n1)C(F)(F)c1cc(-c2ccccc2)[nH]n1 | -0.736
25 | C(=C\c1ccccc1)/CN1CCN(C2c3ccccc3-c3ccccc32)CC1 | 0.774
26 | CC(=O)/N=C(\N)Nc1nc(=O)c2ccccc2s1 | 5.55
27 | NC(=O)c1c(NC(=O)C2CCCN(C(=O)c3cc(F)cc(F)c3)C2)sc2c1CCCC2 (stereo not drawn) | 22.8
28 | COCc1cc(C)nc(SCC(=O)Nc2ccc(OC)cc2)c1C#N | 3.05
29 | CC[C@H](NC(=O)[C@H](CC1CCCC1)NC1=NS(=O)(=O)c2ccccc21)C(=O)c1nc(-c2ccccc2)no1 | -6.56
30 | COc1ccccc1-c1nnc(N)s1 | 5.98
31 | CCN(CC)c1ccc(NC(=O)c2nc3nc(C)cc(C(F)F)n3n2)cc1 | -11.4
32 | O=C(Nc1c(C(=O)N2CCN(C(=O)c3ccco3)CC2)cnn1-c1ccccc1Cl)c1ccco1 | -3.57
33 | N#CCNC(=O)C(CC1CCCCCC1)NC(=O)c1ccccc1 (stereo not drawn) | -3.49
34 | Cc1ccc(S(=O)(=O)N(CC(=O)Nc2ccc3c(c2)OCO3)c2cccc(Cl)c2)cc1 | -0.588
35 | CN1c2ccccc2-c2ccccc2C12C=Cc1cc(Br)cc(Br)c1O2 (stereo not drawn) | 4.33
36 | O=C(Nc1nonc1-n1cccc1)c1ccccc1Cl | -2.19
37 | COC(=O)c1onc(C(=O)c2ccccc2)c1C(=O)OC | -3.78
38 | O=C(Nc1nncs1)c1cn(-c2ccccc2)nc1-c1ccccc1 | 3.92
39 | OC(CN1CCCCC1)Cn1c(C(F)(F)F)nc2ccccc21 (stereo not drawn) | -5.13
40 | COC(=O)C1=C(C)NC(=O)CC1c1cccc(C(F)(F)F)c1 (stereo not drawn) | 0.345
41 | O/C(=C\C=N\c1ccccc1O)c1ccc(F)cc1 | 1.35
42 | O=C(Cc1ccc(F)cc1)NCc1ccc2[nH]c3c(c2c1)CCCC3 | 3.19

Row | SMILES | % Inhibition @ 10 uM [%]
43 | CN(C)Cc1c(O)ccc2c(-c3ccccc3)cc(=O)oc12 | 22.4
44 | COc1cc(OC)c(C2C(C#N)=C(N)OC3=C2C(=O)CC(c2ccccc2)C3)cc1Br (stereo not drawn) | 41
45 | CC(C)(C#CC(O)(c1ccccc1)c1ccccc1)N1CCCCC1 | 0.774
46 | O=c1c(OCc2ccccc2)c(O)cnn1-c1ccccc1 | 3.83
47 | Cc1nc(C)c(NC(=O)N2CCCCC2C)cc1NC(=O)N1CCCCC1C (stereo not drawn) | 1
48 | O=C(Nc1ccccc1O)c1cccnc1 | -2.28
49 | CC1=C(C(=O)Nc2ccc(Br)cn2)C(c2cccnc2)C2=C(O)CC(C)(C)CC2=N1 (stereo not drawn) | -2.53
50 | CCCn1c(SCc2nc(-c3ccc(C)cc3)no2)nnc1-c1ccccc1 | -5.91
51 | Cc1cccc(C(=O)Nc2sc(Cc3ccccc3)c(C)c2C(N)=O)c1 | 5.31
52 | O=C(NCc1ccccc1Cl)c1ccc(CS(=O)c2ccccc2)o1 (stereo not drawn) | -3.09
53 | CCCOc1cccc(C(=O)Nc2cccc3ccccc23)c1 | 0.755
54 | CS(=O)(=O)C1=NN2C(=N)/C(=C\c3cn(CCOc4ccccc4)c4ccccc34)C(=O)N=C2S1 | -1.58
55 | CN1CCN(c2ccc(NC(=O)c3cc(Br)ccc3Cl)cc2)CC1 | 0.606
56 | Cc1cc(C(F)(F)Cl)n2ncc(-c3ccccc3)c2n1 | -1.6
57 | O=C(CN1C(=O)S/C(=C\c2cc3c(cc2Cl)OCO3)C1=O)c1ccccc1 | 0.161
58 | CC(O)CNC(=O)C1CC(=O)N(c2ccc(Br)cc2)C1 (stereo not drawn) | -2.58
59 | C=CCn1c(SCC)nc(O)c(CC)c1=O | 2.22
60 | COC(=O)C1=C(C)N(CC2CCCO2)C(=O)/C1=C\c1cc(C)n(-c2ccccc2C(=O)OC)c1C (stereo not drawn) | 1.63
61 | Cc1ccc(N(CC(=O)Nc2cccnc2)S(=O)(=O)c2ccc(C)cc2)cc1 | 0.161
62 | CSc1nc(Oc2ccc(F)cc2Cl)cc(-n2ncc(C#N)c2N)n1 | -4.65
63 | CN(CC(=O)N1CCCC1=O)Cc1ccccc1 | -6.06
